Earlier results as cited in paper PMC3048380, “Crystal Structure of an Integron Gene Cassette-Associated Protein from Vibrio cholerae Identifies a Cationic Drug-Binding Module” (PLoS ONE, 2011).

Target: BmrR E134Q
Details: earlier binding studies of BmrR, no footnote on the cell; cited from earlier work

In the case of `c1ccc([P+](c2ccccc2)(c2ccccc2)c2ccccc2)cc1` [tetraphenylphosphonium (TPP), tetraphenylphosphonium chloride], the Kd is listed as 62.6 ± 3.3 µM.
